Reference: ChEMBL document CHEMBL4888484, “Replenishing the malaria drug discovery pipeline: Screening and hit evaluation of the MMV Hit Generation Library 1 (HGL1) against asexual blood stage Plasmodium falciparum ,using a nano luciferase reporter read-out” (2022)
Out of some 150,000 compounds screened, about 540 (0.36%) showed an effect of 50% or more. The list shows a part of the results.

system: Plasmodium falciparum; test: Primary screen in NF54 nanoGlo assay, in single point, at 2uM, 72h; a lower Z score goes with more inhibition; format: functional, Erythrocyte; settings: timepoint 72 hour

SMILES	% Inhibition [%]	Z score
OC[C@H]1CCCN1c1ncc(Cl)cc1Cl	-10	1.43
O=C(NCC1(O)CCOCC1)Nc1ncc(C2CCCCC2)s1	-10	1.05
Cc1nsc(C)c1C(=O)N1CCOc2cc(O)ccc2C1	-12	2.17
O=C(NCCc1cnccn1)c1cn(C[C@H]2COc3ccccc3O2)nn1	-11	1
C[C@H]1CN(CCOC(=O)N(C)C)C(C)(C)CO1	5	-0.72
Cc1cc(NC(=O)c2ccc(C(F)(F)F)c(=O)[nH]2)nn1C	-4	0.58
Fc1cc2ncn(Cc3nccn3CC(F)(F)F)c2cc1F	-12	1.6
CC(=O)N1c2ccc(S(=O)(=O)N3CCCCC3)cc2C[C@H]1C(=O)Nc1ccc(C)c(C)c1	-2	0.24
Cn1c(CCNC2CC(C)(C)CC(C)(C)C2)n[nH]c1=O	-12	1.47
Cc1nc(N(C)C[C@@]2(C)CCN(C)C2)c2c(C)nn(C)c2n1	-2	0.41
CC(=O)N1CC2=Nc3cccc4[nH]cc(c34)[C@H](c3ccc(Cl)cc3Cl)C2=C1O	1	-0.19
O=C(c1coc(-c2ccccc2)n1)N1CC[C@H](Oc2cccc(F)c2)C1	1	-0.2
CCc1nc(-c2ccc3c(c2)CCN3C(=O)Cc2ccc(OC)c(OC)c2)no1	18	-2.06
COc1cccc(-c2cnc3nc(C)[nH]c3c2)c1F	-12	1.52
CCCc1cc(CNc2ncnc3onc(C)c23)on1	-15	2.23
CC1C(c2ccccc2)CCN1C(=O)C1CCCC(N)C1 (stereo not drawn)	0	0.06
C[C@@]1(C(=O)N2CCN(Cc3ccccc3)CC2)Oc2ccccc2NC1=O	3	-0.44
CCN(CC(=O)Nc1ccc2c(c1)OCCO2)C(=O)CCc1ccc(F)cc1	1	-0.17
CC(C)(C)OC(=O)N1CCC(c2c(C(=O)N3CCN(c4ccc(F)cc4)CC3)cnn2C(C)(C)C)CC1	-8	1.13
O=C(CCC1CCCCC1)Nc1ccc(-c2nc3cc(Cl)ccc3o2)cc1	30	-3.45
Cn1c(C(F)(F)F)nn(C2CCN(C(=O)c3ccccc3Br)CC2)c1=O	4	-0.5

SMILES	% Inhibition [%]	Z score
C[C@@H](CC#N)NC(=O)Nc1cc(-c2ccccc2)ns1	35	-5.06
O=C(NCCN1CCOCC1)N1CCC=C(F)C1	-11	0.98
CCN(C(=O)C1(C)COC1)C1CN(C(=O)C2(C)COC2)C1	6	-0.98
CCCCN(CCC(=O)NCCc1ccccc1)C(=O)c1cc(C)oc1C	-28	4.06
Cc1nccn1[C@@H](C)C(=O)N1CCC(c2cc(N3CCCC3)ncn2)CC1	1	-0.16
CN(C)C(=NCC1CCCC1O)NCc1ccccc1 (stereo not drawn)	8	-1.5
CN(C)c1ccc(NC(=O)N2CCC[C@H]2c2ccncc2)cn1	-8	1.58
CC(C)(C(=O)NCc1csc(=O)[nH]1)C(F)F	-5	0.76
O=C1[C@@H](NC(=O)C2(O)CCCC2)CCCN1Cc1ccccc1	-11	1.78
Cc1cc(Cl)ccc1NC(=O)N1C[C@H](c2nc(-c3cccnc3)no2)[C@@H](C)C1	-9	1.05
CCCc1nc(C)cc(NCc2csc(N)n2)n1	-6	0.92
CC1(C)O[C@@H]2C[C@@](OCc3ccccc3F)(C(=O)NCC3CCCO3)CC(OCc3cccc(OC(F)(F)F)c3)[C@@H]2O1 (stereo partly drawn)	-5	0.58
Cc1noc(C)c1CC(=O)N1CCC(n2nc(C(F)(F)F)n(C)c2=O)CC1	-4	0.67
Cc1cc(N(C)C)nc(NCCNC(=O)Nc2cccc(F)c2C)n1	20	-2.61
O=C(N1CCCC1)N1CC[C@H]2[C@H](CCC(=O)N2CCCCO)C1	-7	1.45
C[C@H](O)CN(C)S(=O)(=O)c1cc(F)c(Br)cc1F	-10	1.13
Cc1ccc(CNC(=O)c2[nH]nc3c2CCC3)s1	-1	0.17
CC(C)[C@@]1(CO)CCCN(C(=O)Nc2nnc(C3CCOCC3)s2)C1	-2	0.15
CC(C)c1nccc(N(C)C[C@H](O)c2cccnc2)n1	-4	0.69
O=C(Cn1nc(C2CC2)ccc1=O)NCc1ccccc1	2	-0.42
CC[C@H](NC(=O)CC1CCN(C(C)C)CC1)c1nc(C)no1	-10	1.27

SMILES	% Inhibition [%]	Z score
CCc1nc(C)c(C(=O)N2CCC[C@H](c3nc(-c4ccccc4)no3)C2)o1	-16	1.49
O=C(c1ccn2c(-c3cccc(Cl)c3)nnc2c1)N1CCN(c2ccccc2F)CC1	5	-0.53
COc1c(C)cc(C(=O)[C@H]2CCCN(C(=O)c3cc(=O)[nH]c(=O)[nH]3)C2)cc1C	-2	0.26
CC1(COc2ccccc2C#N)COC1	13	-1.51
O=C(Nc1cncc(Cl)c1)NC12CCC(CC1)C2	-2	0.35
COc1ccc(C(=O)NC2CC2)c(OC2CCN([C@@H](C)Cc3ccc(C)cc3)CC2)c1	7	-1.14
OCCN(Cc1cccnc1)Cc1cn2cc(Cl)ccc2n1	-7	0.66
Cc1c(CC(=O)N[C@H]2CCNC2=O)c2c(n1Cc1ccccc1)CCCC2=O	-21	2.73
CCc1nc([C@H](C)Nc2cnn(CC)c2)oc1-c1ccccc1	-11	1.45
Cn1nc2c(cc1=O)C[C@@H](NC(=O)c1ccc3c(c1)OCO3)CC2	-25	4.33
CN(C)[C@H]1CCN(C(=O)Nc2ccccc2CS(=O)(=O)c2ccccc2)C1	2	-0.25
COc1ccc(CN(C)CCN2CCCCC2=O)cn1	11	-1.39
COc1ccc(-c2nnc(-c3cc(S(=O)(=O)N4CCCCCC4)ccc3Cl)o2)cc1	-1	0.08
COC(=O)c1[nH]c(C)cc1NS(=O)(=O)c1ccc(C2CCCCC2)cc1	2	-0.19
Cc1cccc(Cc2sc(N3C(=O)N[C@@](C)(CCF)C3=O)nc2C)c1	-12	1.17
Cc1ccsc1-c1nc(CC(N)=O)nn1C(C)(C)C	0	0.06
Cc1nc(C(=O)NCCOc2cncc(Cl)c2)c(C)o1	27	-3.06
Cc1ccc(OCC2CCN(C(=O)c3cnn(-c4ccccc4)n3)CC2)nn1	-3	0.32
Cn1cc(NC(=O)[C@@H]2CCCN2c2ncnc3sccc23)cn1	-1	0.11
Cc1cc(CN2CCCC2)cc(-c2cc(F)cc3c2O[C@@H](CN)C3)c1	-10	1.34
CNC(=O)[C@H]1CN(C(=O)Nc2cc(C)ccc2C)CC12CCCC2	-4	0.44

SMILES	% Inhibition [%]	Z score
COCc1cc(=O)n(CC(=O)NCc2ccc(F)cc2)c(N2CCCC2)n1	2	-0.26
Cc1ncc(C(=O)N2C[C@@H]3C[C@H](N(C)C)CN3C(=O)[C@@H]2CC(C)C)cn1	-3	0.59
COc1ccccc1NC(=O)CNC(=O)C1OC2OC(C)(C)OC2C2OC(C)(C)OC12 (stereo not drawn)	1	-0.17
CCOC(=O)c1cn(-c2nc(C)cc(C)n2)nn1	-15	2.93
CNC(=O)CCCNc1nc2c(s1)c(C)nn2C	-18	1.91
Cc1nc2cc(NC(=O)[C@H]3CC34CCN(Cc3cc(F)cc(F)c3)CC4)ccc2s1	3	-0.38
O=C(NC[C@H]1CCN(Cc2ccncc2Cl)C1)C(=O)c1ccco1	9	-0.98
O=C(O)c1ccc2c(c1)CCN2S(=O)(=O)c1cnn(C2CCCC2)c1	32	-3.64
Cc1ccc(-c2ccccc2)n1-c1ccc2c(c1)OCO2	-10	1.33
COc1ccccc1CNC(=O)C1CCC(Cn2c(=O)[nH]c3ccsc3c2=O)CC1 (stereo not drawn)	-9	0.92
O=C(NCCn1nc(C(F)(F)F)cc1C1CC1)C1CCC1	6	-0.95
O[C@@H](CNCc1ccccc1)c1ccsc1	-2	0.2
O=C1OCCC1N1CCOC(c2nccs2)C1 (stereo not drawn)	-7	1.01
CN1CCN(CCOc2ccc(NC(=O)c3coc(C4CCC4)n3)cc2)CC1	-16	2.45
COc1ccc(Cc2noc(C3CC4CCC3O4)n2)cc1OC (stereo not drawn)	-7	1.33
C=CCNC(=O)c1ccc(N(C)C[C@H](O)c2ccc(F)cc2)nc1	4	-0.52
O=C(COc1ccccc1)N1CCOC[C@H](Oc2ccc(C(F)(F)F)cc2)C1	19	-2.25
CC[C@@H](CNS(C)(=O)=O)Nc1cnccn1	-5	0.67
O=C1[C@H]2C(Cc3c[nH]c4ccccc34)N[C@@]3(C(=O)Nc4ccc(F)cc43)[C@H]2C(=O)N1CC1CCCO1 (stereo partly drawn)	39	-5.09
Cc1ccc(CNC(=O)[C@@H]2Cn3cccc3C(=O)N2)o1	-2	0.29
CC(=O)c1nc2ccccc2n1CC(=O)Nc1nn(C)c2nc(C)cc(C)c12	11	-1.06
